Source: a collection of fitness landscapes (doi:10.1016/j.celrep.2020.107928)
Whole data set: some 81,000 sequences, median “one-hybrid fitness for binding parS DNA” near -0.17, cut for the highest 2% near 0.51. Some of the results follow.

B1: Caulobacter ParB omega fusion; a variant is named by its letters at X, in order, B8GW30 (parent)
chain: MESVVVGEPGMSEGRRGLGRGLSALLGEVDAAPAQAPGEQLGGSREAPIEILQRNPDQPRRTFREEDLEDLSNSIREKGVLQPILVRPSPDTAGEYQIVAGERAWRAAQRAGLKTVPIMVRELDDLAVLEIGIIENVQRADLNVLEEALSYKVLMEKFERTQENIAQTIGKSXSHVANXMRLLXLPDEVQSYLVSGELTAXHARAIAAAADPVALAKQIIEGGLSVRETEALARKAPNLSAGKSKGGRPPRVKDTDTQALESDLSSVLGLDVSIDHRGSTGTLTITYATLEQLDDLCNRLTRGI

Variants of: B1
Experiment: one-hybrid fitness for binding parS DNA (scaled: cognate 1, non-cognate 0); higher = stronger binding
Conditions: with parS DNA site
Outline: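 Values were rescaled so that cognate is 1 and non-cognate is 0. Each is a fitness, the log change in a variant's read ratio to wild type from Illumina reads of plasmids before and after selection, with three replicate libraries pooled and variants under 10 reads dropped. Selection of the Caulobacter ParB libraries, four specificity codons randomised, used E. coli USO with a HIS3 reporter, site 19 bp from the promoter, on M9-minus-histidine with 0.1 mM IPTG and 5 mM 3-AT for 48 hours at 37°C.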

one-hybrid fitness for binding parS DNA, 0.707:
RSVT

one-hybrid fitness for binding parS DNA, 0.593:
RRHT

one-hybrid fitness for binding parS DNA, 0.496:
RNGA

one-hybrid fitness for binding parS DNA, 0.239:
HRNG

one-hybrid fitness for binding parS DNA, 0.209:
RVGW

one-hybrid fitness for binding parS DNA, 0.202:
RTQD

one-hybrid fitness for binding parS DNA, ≤ 0.2:
HTWF
LPEW
MAMR
YSCK
YHYY
ATKM
VPVG
FRWR
KRMV
PNWD
TRKV
LQDS
TFVI
RDPY
TNMS
HKNN
EECL
GCLA
PNTY
DQMG
PTHT
QQSV
NVYP
SPQG
AWAV
DSPF
HHWF
KGRC
IGIR
DKLW
PPFN
GNAG
GHPH
YNSF
THGV
NDES
RSFE
WWAR
TACR
RLQI
GPPR
QSMG
PWNT
QHSE
SRIY
ICTW
CPTR
LCRG
TDRC
KTDE
YRYR
RPGS
DLLT
LSIL
TIFG
YLTA
PLSE
WKAC
GHIG
AYTY
WGKE
QEMI
KTIL
SLCG
TAEI
NPHS
SAFL
LRTG
LGYS
ESDF
KSRS
REIR
QPPE
NTDT
PKQF
KLTR
PHMK
QNSP
QDCW
YCKA
GKIR
LKKN
WDHG
SPKG
LAQG
NRGC
YEVG
GVTP
VKHP
IRLV
THDM
LYHL
EPKM
KNSA
DYDI
KNHS
LVLL
TFVG
TDFR
PNRD
TPGY
ISAR
MLHR
EVHL
YIFT
QYHC
RPKY
DVKA
HAHR
KHYN
TSYD
DHGF
ALQR
HSFF
EALN
TAPF
YSRR
QQPR
IPPN
QRAM
ANQN
QYRW
RDIE
WVLA
NLNI
AKIK
EDTL
FSSS
KALN
LTFI
VAQR
ELKF
LFTG
PCQV
HWMG
NIEV
KDTT
PVKR
HRVM
PYKI
GYLI
SCYW
LSSE
LYQL
HHIT
NSNL
EGCI
ALAW
RECV
NDTL
HLKP
SSHM
AHPR
RHTW
LMNC
TSRI
HPWM
SSQN
LDFS
PTGR
EQYS
TSLS
SKHG
KLTD
ATFC
LGSR
STVY
CRAV
QVFL
VMLE
YIRT
SPGF
TKLH
QHMV
PASP
NRTH
QADG
MFAL
HILG
LLGT
CFFL
NSVG
AYHI
RVYQ
IHLS
KHMS
IQPR
FCLW
EGLG
